Measured values from publication PMC5612953, “Stable MOB1 interaction with Hippo/MST is not essential for development and tissue growth control” (Nature Communications, 2017).
Residue numbers refer to the chain shown, from its start. In names and notes the source's numbering stands. No constants are given. Whether binding was seen depends on the method and setting. Binding seen in cells or lysates may run through a third protein. Some results given as binding are weak or reduced against the parent protein; the word gives no strength. Tags and fused reporters may be left off the sequences shown. Values belong to the binder of their own block, whether it stands above or below them.

Columns and labels:
[1] = target: T1, HA-tagged full-length wild-type human LATS2 (human) (UniProt Q9NRM7); assay: co-IP; HEK293 cells co-expressing myc-MOB1A variants and HA-tagged kinases; IP with anti-HA (12CA5), blot anti-myc; low-stringency buffer (30 mM HEPES pH 7.4, 20 mM KCl, 1% TX-100)
T1 sequence: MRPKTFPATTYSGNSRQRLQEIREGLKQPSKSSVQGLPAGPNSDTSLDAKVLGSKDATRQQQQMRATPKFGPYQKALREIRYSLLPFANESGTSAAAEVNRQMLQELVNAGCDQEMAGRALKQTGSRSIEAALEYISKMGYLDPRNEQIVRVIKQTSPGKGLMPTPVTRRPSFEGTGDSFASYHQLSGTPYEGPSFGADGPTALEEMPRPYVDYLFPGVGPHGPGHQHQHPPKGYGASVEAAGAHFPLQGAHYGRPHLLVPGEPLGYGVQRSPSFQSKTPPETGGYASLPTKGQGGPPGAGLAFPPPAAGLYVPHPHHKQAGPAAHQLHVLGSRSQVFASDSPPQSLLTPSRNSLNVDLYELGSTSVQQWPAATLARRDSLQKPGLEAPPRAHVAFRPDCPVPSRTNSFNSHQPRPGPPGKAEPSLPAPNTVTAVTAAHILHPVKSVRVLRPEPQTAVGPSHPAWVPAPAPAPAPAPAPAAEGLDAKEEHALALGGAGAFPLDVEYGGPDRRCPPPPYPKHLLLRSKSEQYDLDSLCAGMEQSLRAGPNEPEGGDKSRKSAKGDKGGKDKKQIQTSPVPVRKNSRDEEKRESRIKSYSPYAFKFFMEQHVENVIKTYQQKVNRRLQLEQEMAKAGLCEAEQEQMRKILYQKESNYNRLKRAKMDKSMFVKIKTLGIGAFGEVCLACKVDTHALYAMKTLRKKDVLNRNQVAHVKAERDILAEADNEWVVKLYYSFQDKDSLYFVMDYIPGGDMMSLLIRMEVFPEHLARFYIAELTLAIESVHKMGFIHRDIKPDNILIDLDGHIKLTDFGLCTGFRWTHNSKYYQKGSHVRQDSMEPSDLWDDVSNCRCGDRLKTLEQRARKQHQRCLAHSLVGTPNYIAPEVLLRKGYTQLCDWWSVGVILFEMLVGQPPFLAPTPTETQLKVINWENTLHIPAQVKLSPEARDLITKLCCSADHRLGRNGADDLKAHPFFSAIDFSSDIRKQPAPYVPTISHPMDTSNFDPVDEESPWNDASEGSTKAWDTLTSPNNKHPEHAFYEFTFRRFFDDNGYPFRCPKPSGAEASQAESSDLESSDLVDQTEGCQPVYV

[2] = target: T2, full-length HA-MST2 wild-type (human) (UniProt Q13188); assay: co-IP; three additional co-immunoprecipitation conditions: RIPA, PBS-E or standard lysis buffer (Supplementary Fig. 8); MOB1 with human MST2
T2 sequence: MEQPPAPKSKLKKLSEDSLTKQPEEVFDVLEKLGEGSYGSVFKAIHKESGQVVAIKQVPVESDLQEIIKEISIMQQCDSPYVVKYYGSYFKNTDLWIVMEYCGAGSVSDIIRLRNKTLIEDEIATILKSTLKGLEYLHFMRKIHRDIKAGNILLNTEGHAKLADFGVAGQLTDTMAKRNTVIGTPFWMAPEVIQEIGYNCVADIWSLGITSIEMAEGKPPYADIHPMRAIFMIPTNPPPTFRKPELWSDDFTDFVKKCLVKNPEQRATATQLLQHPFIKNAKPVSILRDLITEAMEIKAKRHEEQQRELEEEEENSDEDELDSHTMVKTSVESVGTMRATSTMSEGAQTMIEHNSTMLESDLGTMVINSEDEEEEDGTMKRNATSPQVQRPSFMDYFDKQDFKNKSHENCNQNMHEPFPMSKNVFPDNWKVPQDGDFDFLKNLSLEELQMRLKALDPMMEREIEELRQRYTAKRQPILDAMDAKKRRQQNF

binding [1]: binds
binding [2]: binds
B1: myc-tagged full-length human MOB1A wild-type (HEK293) (protein, UniProt Q9H8S9 1-216)
chain: MSFLFSSRSSKTFKPKKNIPEGSHQYELLKHAEATLGSGNLRQAVMLPEGEDLNEWIAVNTVDFFNQINMLYGTITEFCTEASCPVMSAGPRYEYHWADGTNIKKPIKCSAPKYIDYLMTWVQDQLDDETLFPSKIGVPFPKNFMSVAKTILKRLFRVYAHIYHQHFDSVMQLQEEAHLNTSFKHFIFFVQEFNLIDRRELAPLQELIEKLGSKDR

binding [1]: binds
binding [2]: no binding
B2: myc-tagged full-length human MOB1A(K104E/K105E) (HEK293) (protein, UniProt Q9H8S9 1-216)
chain: B1 chain with K104E, K105E
